# Test results from the supplement of paper PMC8728848.
# Some of the results follow.
# B1: Epa3to1 (Candida glabrata) (protein)
# chain: MGSSHHHHHHSSGLVPRGSHMKRELSSQNPFGYPIGCSPQDVAIIPGLTMELYSYPIVSGTPPNCYDASYVDPEYPRTGYLKRKMVGKSTGVTGNLNYKYSVEKACMVKYGNLPAGYNYNEPLTVSNFTMILYGYFKAQTTGLHTFFVNADDLLYINFGAGNAFDCCKREDSKTKLGEYVAYDIWHVDSSKNKVSLFLEKDLYYPIRMFFNNREYDSSLDLSFSVNGATDQISDFSGYLYSVPDQPDTCPAHIGYDTTCR
# What was measured:
# Experiment in all cases: glycan array binding signal (z-score within array); higher = stronger binding
# Conditions in all cases: glycan notation: IUPAC condensed, linker removed
# [1] = target: Fuc(a1-2)[GalNAc(a1-3)]Gal(b1-3)GlcNAc(b1-6)GalNAc
# Procedure, shortened: (§1)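 Arrays were curated from the Consortium for Functional Glycomics database, 3228 in total, and kept only where the protein sequence was available. Binding is expressed as a within-array Z-score. This score was averaged across arrays of the same protein sequence at different concentrations or buffers and across linkers, and negative values can be read as non-binding.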
# [2] = target: Fuc(a1-2)[GalNAc(a1-3)]Gal(b1-4)Glc
# Procedure, shortened: as §1
# [3] = target: Fuc(a1-2)[GalNAc(a1-3)]Gal(b1-4)GlcNAc
# Procedure, shortened: as §1
# [4] = target: Fuc(a1-2)[GalNAc(a1-3)]Gal(b1-4)GlcNAc(b1-2)Man
# Procedure, shortened: as §1
# [5] = target: Fuc(a1-2)[GalNAc(a1-3)]Gal(b1-4)GlcNAc(b1-2)Man(a1-3)[Fuc(a1-2)[GalNAc(a1-3)]Gal(b1-4)GlcNAc(b1-2)Man(a1-6)]Man(b1-4)GlcNAc(b1-4)GlcNAc
# Procedure, shortened: as §1
# [6] = target: Fuc(a1-2)[GalNAc(a1-3)]Gal(b1-4)GlcNAc(b1-2)Man(a1-3)[Fuc(a1-2)[GalNAc(a1-3)]Gal(b1-4)GlcNAc(b1-2)Man(a1-6)]Man(b1-4)GlcNAc(b1-4)[Fuc(a1-6)]GlcNAc
# Procedure, shortened: as §1
# [7] = target: Fuc(a1-2)[GalNAc(a1-3)]Gal(b1-4)GlcNAc(b1-3)Gal(b1-4)GlcNAc
# Procedure, shortened: as §1
# [8] = target: Fuc(a1-2)[GalNAc(a1-3)]Gal(b1-4)GlcNAc(b1-3)Gal(b1-4)GlcNAc(b1-3)Gal(b1-4)GlcNAc
# Procedure, shortened: as §1
# [9] = target: Fuc(a1-2)[GalNAc(a1-3)]Gal(b1-4)GlcNAc(b1-3)GalNAc
# Procedure, shortened: as §1
# [10] = target: Fuc(a1-2)[GalNAc(a1-3)]Gal(b1-4)GlcNAc(b1-3)[Fuc(a1-2)[GalNAc(a1-3)]Gal(b1-4)GlcNAc(b1-6)]GalNAc
# Procedure, shortened: as §1
# [11] = target: Fuc(a1-2)[GalNAc(a1-3)]Gal(b1-4)GlcNAc(b1-6)GalNAc
# Procedure, shortened: as §1
# [12] = target: Fuc(a1-2)[GalNAc(a1-3)]Gal(b1-4)[Fuc(a1-3)]GlcNAc
# Procedure, shortened: as §1
# [13] = target: Fuc(a1-2)[GalNAc(a1-3)]Gal(b1-4)[Fuc(a1-3)]GlcNAc(b1-3)GalNAc
# Procedure, shortened: as §1
# [14] = target: Fuc(a1-2)[GalNAc(a1-4)]Gal(b1-4)GlcNAc
# Procedure, shortened: as §1
# [15] = target: Fuc(a1-2)[GalNAc(b1-3)]Gal
# Procedure, shortened: as §1
# [16] = target: Fuc(a1-3)GlcNAc
# Procedure, shortened: as §1
# [17] = target: Fuc(a1-3)[Gal(b1-4)]Glc6S
# Procedure, shortened: as §1
# [18] = target: Fuc(a1-3)[Gal(b1-4)]GlcNAc
# Procedure, shortened: as §1
# [19] = target: Fuc(a1-3)[Gal(b1-4)]GlcNAc(b1-2)Man
# Procedure, shortened: as §1
# [20] = target: Fuc(a1-3)[Gal(b1-4)]GlcNAc(b1-2)Man(a1-3)[Fuc(a1-3)[Gal(b1-4)]GlcNAc(b1-2)Man(a1-6)]Man(b1-4)GlcNAc(b1-4)GlcNAc
# Procedure, shortened: as §1
# [21] = target: Fuc(a1-3)[Gal(b1-4)]GlcNAc(b1-2)Man(a1-3)[Fuc(a1-3)[Gal(b1-4)]GlcNAc(b1-2)Man(a1-6)]Man(b1-4)GlcNAc(b1-4)[Fuc(a1-6)]GlcNAc
# Procedure, shortened: as §1
# [22] = target: Fuc(a1-3)[Gal(b1-4)]GlcNAc(b1-3)Gal(b1-3)[Fuc(a1-4)]GlcNAc
# Procedure, shortened: as §1
# [23] = target: Fuc(a1-3)[Gal(b1-4)]GlcNAc(b1-3)Gal(b1-4)[Fuc(a1-3)]GlcNAc
# Procedure, shortened: as §1
# [24] = target: Fuc(a1-3)[Gal(b1-4)]GlcNAc(b1-3)Gal(b1-4)[Fuc(a1-3)]GlcNAc(b1-3)Gal(b1-4)[Fuc(a1-3)]GlcNAc
# Procedure, shortened: as §1
# [25] = target: Fuc(a1-3)[Gal(b1-4)]GlcNAc(b1-3)GalNAc
# Procedure, shortened: as §1
# [26] = target: Fuc(a1-3)[Gal(b1-4)]GlcNAc(b1-6)GalNAc
# Procedure, shortened: as §1
# [27] = target: Fuc(a1-3)[Gal(b1-4)]GlcNAc(b1-6)[Gal(b1-3)GlcNAc(b1-3)]Gal(b1-4)Glc
# Procedure, shortened: as §1
# [28] = target: Fuc(a1-3)[Gal(b1-4)]GlcNAc6S
# Procedure, shortened: as §1
# [29] = target: Fuc(a1-3)[Gal3S(b1-4)]Glc
# Procedure, shortened: as §1
# [30] = target: Fuc(a1-3)[Gal3S(b1-4)]GlcNAc
# Procedure, shortened: as §1
# [31] = target: Fuc(a1-3)[Gal3S(b1-4)]GlcNAc6S
# Procedure, shortened: as §1
# [32] = target: Fuc(a1-3)[GalNAc(b1-4)]GlcNAc
# Procedure, shortened: as §1
# [33] = target: Fuc(a1-3)[GalNAc(b1-4)]GlcNAc6S
# Procedure, shortened: as §1
# [34] = target: Fuc(a1-4)GlcNAc
# Procedure, shortened: as §1
# [35] = target: Fuc(b1-3)GlcNAc
# Procedure, shortened: as §1
# [36] = target: Gal(a1-2)Gal
# Procedure, shortened: as §1
# [37] = target: Gal(a1-3)Gal
# Procedure, shortened: as §1
binder,measurement,setting,value
B1,glycan array binding signal (z-score),[1],-0.505
same,glycan array binding signal (z-score),[2],-0.333
same,glycan array binding signal (z-score),[3],-0.35
same,glycan array binding signal (z-score),[4],-0.541
same,glycan array binding signal (z-score),[5],0.877
same,glycan array binding signal (z-score),[6],1.09
same,glycan array binding signal (z-score),[7],-0.209
same,glycan array binding signal (z-score),[8],0.51
same,glycan array binding signal (z-score),[9],-0.651
same,glycan array binding signal (z-score),[10],0.258
same,glycan array binding signal (z-score),[11],-0.661
same,glycan array binding signal (z-score),[12],-0.297
same,glycan array binding signal (z-score),[13],-0.295
same,glycan array binding signal (z-score),[14],-1.24
same,glycan array binding signal (z-score),[15],0.203
same,glycan array binding signal (z-score),[16],-0.177
same,glycan array binding signal (z-score),[17],0.568
same,glycan array binding signal (z-score),[18],-0.202
same,glycan array binding signal (z-score),[19],-0.392
same,glycan array binding signal (z-score),[20],-0.581
same,glycan array binding signal (z-score),[21],0.093
same,glycan array binding signal (z-score),[22],-0.373
same,glycan array binding signal (z-score),[23],-0.397
same,glycan array binding signal (z-score),[24],-0.177
same,glycan array binding signal (z-score),[25],0.211
same,glycan array binding signal (z-score),[26],-0.714
same,glycan array binding signal (z-score),[27],0.125
same,glycan array binding signal (z-score),[28],0.794
same,glycan array binding signal (z-score),[29],-0.326
same,glycan array binding signal (z-score),[30],-0.319
same,glycan array binding signal (z-score),[31],0.359
same,glycan array binding signal (z-score),[32],-0.148
same,glycan array binding signal (z-score),[33],-0.498
same,glycan array binding signal (z-score),[34],0.771
same,glycan array binding signal (z-score),[35],-0.035
same,glycan array binding signal (z-score),[36],-0.322
same,glycan array binding signal (z-score),[37],1.67
